# Experimental data taken from the supplement of paper PMC8183993.
# Where “and” joins values, the source holds several entries; their conditions need not be identical. Equal values may be shown once. Where a name gives a salt, the structure may show the parent alone. ± gives the standard deviation of the averaged measurements. In all, about 3,100 compounds were measured (“mean cytoplasmic OPP incorporation (global translation) relative to DMSO”: median about 100, lowest 2% from about 56 on). The list shows a part of the results.
# System: U2OS
# Assay: mean cytoplasmic OPP incorporation (global translation) relative to DMSO (% of DMSO); higher = more protein synthesis
# Details: 10 µM; 24 h
# Protocol: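 Primary image-based screen in U2OS cells: compounds at 10 uM for 24 h, then a 1 h o-propargyl-puromycin (OPP) pulse, click labelling, and high-throughput microscopy. Mean cytoplasmic OPP intensity and nuclei count were normalised to DMSO wells within each plate (DMSO = 100) and averaged over triplicate plates.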
row,SMILES,mean cytoplasmic OPP incorporation
1,CC(C)(C)c1cc(/C=C(\C#N)C(N)=S)cc(C(C)(C)C)c1O [Tyrphostin AG 879 (AG 879)],104
2,CCC(=O)NCC[C@@H]1CCc2ccc3c(c21)CCO3 [Ramelteon (TAK-375)],97.4
3,COC1=CC(=O)C[C@@H](C)[C@]12Oc1c(Cl)c(OC)cc(OC)c1C2=O [Griseofulvin],94.6
4,COc1cc(N)c(Cl)cc1C(=O)NC1CCN(CCCOc2ccc(F)cc2)CC1OC (stereo not drawn) [Cisapride],117
5,CN(C)CCC(c1ccc(Cl)cc1)c1ccccn1 (stereo not drawn) [Chlorpheniramine maleate],93.9
6,CCN(CC)CCCCC1CCN(CC(=O)N2c3ccccc3C(=O)Nc3cccnc32)CC1,99.3
7,COc1ccccc1N1CCN(CCN2C(=O)CC3(CCCC3)CC2=O)CC1 [BMY 7378 dihydrochloride],100
8,COC1=C(OC)C(=O)C(C/C=C(\C)CC/C=C(\C)CC/C=C(\C)CC/C=C(\C)CC/C=C(\C)CC/C=C(\C)CC/C=C(\C)CC/C=C(\C)CC/C=C(\C)CCC=C(C)C)=C(C)C1=O [Coenzyme Q10 (CoQ10)],114
9,O=C(O)c1ccccc1Nc1cccc(OCc2ccc3ccccc3n2)c1 [SR 2640 hydrochloride],100
10,CC(=O)NCCc1c(Cc2ccccc2)[nH]c2ccccc12 [Luzindole],103
11,O=C(O[C@@H]1C[C@@H]2C[C@H]3C[C@H](C1)N2CC3=O)c1c[nH]c2ccccc12 [Dolasetron mesilate],100
12,O=C(Nc1ccc(C(F)(F)F)cn1)N1CCN(c2ncccc2C(F)(F)F)CC1,89.9
13,COC(=O)Nc1nc2cc(C(=O)c3ccc(F)cc3)ccc2[nH]1 [Flubendazol],80.3
14,COC(=O)Nc1nc2cc(C(=O)c3ccc(F)cc3)ccc2[nH]1 [Flubendazole (Flutelmium)],87.3
15,Cn1c(=O)c2c(ncn2C)n(C)c1=O [Caffeine],98.3 ± 2.4
16,CC[C@@H]1C(=O)N(C)c2cnc(Nc3ccc(C(=O)NC4CCN(C)CC4)cc3OC)nc2N1C1CCCC1,110
17,O=C1CCc2c(ccc3ccccc23)O1 [Splitomicin],104 ± 1.3
18,O=C1c2ccccc2C(Cc2ccncc2)(Cc2ccncc2)c2ccccc21 [XE 991 dihydrochloride],106
19,Cc1c(OCC(F)(F)F)ccnc1C[S+]([O-])c1nc2ccccc2[nH]1 (stereo not drawn) [Lansoprazole],97.52 ± 0.96
20,C#CCN(C)CC1=Cc2ccccc2Oc2ccccc21,102
21,CC(C)(C)NCC(O)c1ccc(O)c(CO)c1 (stereo not drawn) [Salbutamol],101
22,CCCCC[C@H](O)CC(=O)CCc1ccc(O)c(OC)c1 [Gingerol],102
23,CO[C@H]1C[C@@H]2CC[C@@H](C)[C@@](O)(O2)C(=O)C(=O)N2CCCC[C@H]2C(=O)O[C@H]([C@H](C)C[C@@H]2CC[C@@H](OP(C)(C)=O)[C@H](OC)C2)CC(=O)[C@H](C)/C=C(\C)[C@@H](O)[C@@H](OC)C(=O)[C@H](C)C[C@H](C)/C=C/C=C/C=C/1C [Deforolimus (Ridaforolimus)],89.2
24,CCn1c(=O)n(C2=C(CO)CN(CC3CCCCCCC3)CC2)c2ccccc21,108
25,O=C(Nc1cccc(Cl)c1)Nc1ncc(CCNc2ncnc3ccsc23)s1 [SNS-314 Mesylate],122

row,SMILES,mean cytoplasmic OPP incorporation
1,Nc1ncnc2c1c(-c1cccc(OCc3ccccc3)c1)cn2C1CC(CN2CCCC2)C1 (stereo not drawn),123
2,CNC(=O)CN1CCC(Oc2cc3c(Nc4cccc(Cl)c4F)ncnc3cc2OC)CC1,112
3,CCCS(=O)(=O)Nc1ccc(F)c(C(=O)c2c[nH]c3ncc(Cl)cc23)c1F,106
4,CCN1CCCC1CNC(=O)c1cc(S(=O)(=O)CC)c(N)cc1OC (stereo not drawn) [Amisulpride],98.7 ± 6
5,Nc1nc(N)nc(-c2cc(Cl)ccc2Cl)n1 [Irsogladine maleate],100 ± 4
6,COc1cc(N)c(Cl)cc1C(=O)NC1CCN(Cc2ccccc2)CC1 [Clebopride maleate],108
7,C[C@@H](O)[C@H]1C(=O)N2C(C(=O)OCOC(=O)C(C)(C)C)=C(SC3CN(C4=NCCS4)C3)[C@H](C)[C@H]12 [Tebipenem pivoxil (L-084)],98.1
8,CCCCOc1ccc(OCCCN2CCOCC2)cc1 [Pramoxine hydrochloride],97.3
9,O=C(NCC1CCCCN1)c1cc(OCC(F)(F)F)ccc1OCC(F)(F)F (stereo not drawn) [Flecainide acetate],99.9 ± 2.5
10,CC1CCc2cc(F)cc3c(=O)c(C(=O)O)cn1c23 (stereo not drawn) [Flumequine],88.3
11,COc1ccccc1OCCNCC(O)COc1cccc2[nH]c3ccccc3c12 (stereo not drawn) [Carvedilol],118 ± 6.1
12,CCC(CC)[C@H](NC(C)=O)[C@@H]1[C@H](O)[C@@H](C(=O)O)C[C@H]1NC(=N)N [Peramivir  Trihydrate],99.4
13,COc1cc2c(cc1OC)-c1cc3nc4ccccc4nc3n1C(C)(C)C2,103
14,CC(C)c1nc(CN(C)C(=O)N[C@H](C(=O)N[C@@H](Cc2ccccc2)C[C@H](O)[C@H](Cc2ccccc2)NC(=O)OCc2cncs2)C(C)C)cs1 [Ritonavir],112
15,COc1c(O)cc2c(c1O)[C@@H]1O[C@H](CO)[C@@H](O)[C@H](O)[C@H]1OC2=O [Bergenin (Cuscutin)],99.9
16,CC(C)[C@H]1CC[C@H](C(=O)N[C@H](Cc2ccccc2)C(=O)O)CC1 [Nateglinide (Starlix)],97.2
17,Nc1cccc(-c2cc3c(Oc4cccc(O)c4)ncnc3[nH]2)c1,97.3 and 85.8
18,COc1ccc(C(C)=O)c(O)c1 [Paeonol],108
19,COc1ccc(-n2nc(C(N)=O)c3c2C(=O)N(c2ccc(N4CCCCC4=O)cc2)CC3)cc1 [Apixaban],123
20,COc1ccc(CCCOC(Cn2ccnc2)c2ccc(OC)cc2)cc1 (stereo not drawn),98 and 106
21,C[C@H]1CC[C@@]2(OC1)O[C@H]1C[C@H]3[C@@H]4CC[C@@H]5C[C@@H](O[C@@H]6O[C@H](CO)[C@H](O)[C@H](O)[C@H]6O[C@@H]6O[C@H](CO)[C@@H](O)[C@H](O)[C@H]6O)CC[C@]5(C)[C@H]4CC[C@]3(C)[C@H]1[C@@H]2C [Timosaponin A-III],111
22,c1ccc(N2CCN(CCCOc3ccc4c(c3)OCO4)CC2)cc1 [BP 554 maleate],105
23,Cc1cc(Cc2cc(C)cc(C(C)(C)C)c2O)c(O)c(C(C)(C)C)c1,103
24,CCn1cc(C(=O)O)c(=O)c2cc(F)c(N3CCNCC3)cc21 [Norfloxacin],63.7
25,N[C@@H](C(=O)O)c1ccc(O)c(C(=O)O)c1 [(R)-3-Carboxy-4-hydroxyphenylglycine],100

row,SMILES,mean cytoplasmic OPP incorporation
1,Cc1nc2c(OCc3ccccc3)cccn2c1CC#N,98.8
2,CCOC(=O)C1=C(C)NC(C)=C(C(=O)OC)C1c1cccc([N+](=O)[O-])c1 (stereo not drawn) [Nitrendipine],97.86 ± 0.44
3,COc1cc(C[C@H]2C(=O)OC[C@@H]2Cc2ccc(OC)c(OC)c2)ccc1O [Arctigenin],94
4,NS(=O)(=O)c1cc2c(cc1C(F)(F)F)NC(Cc1ccccc1)NS2(=O)=O (stereo not drawn) [Bendroflumethiazide],103
5,CC(CN1c2ccccc2Sc2ccccc21)N(C)C (stereo not drawn) [Promethazine hydrochloride],108
6,CNC(=O)c1ccccc1Sc1ccc2c(/C=C/c3ccccn3)n[nH]c2c1 [Axitinib],98.1
7,CN(C)[C@@H]1CCc2[nH]c3ccc(NC(=O)c4ccc(F)cc4)cc3c2C1,104
8,CCOc1cc(N2CCC(O)CC2)ccc1Nc1ncc2c(n1)N(C)c1ccccc1C(=O)N2C,110
9,O=C(c1ccc(OCCN2CCCCC2)cc1)c1c(-c2ccc(O)cc2)sc2cc(O)ccc12 [Raloxifene hydrochloride],113 ± 6.4
10,CC(C)[C@H](CO)Nc1nc(Nc2cc(N)cc(Cl)c2)c2ncn(C(C)C)c2n1 [Aminopurvalanol A],93.2
11,CNC(=O)c1ccc(N2C(=S)N(c3cnc(C#N)c(C(F)(F)F)c3)C(=O)C23CCC3)cc1F,104
12,O=C1CC2(CCCC2)CC(=O)N1CCNCC1COc2ccccc2O1 (stereo not drawn),106
13,CCOC(=O)[C@H](CCc1ccccc1)N[C@@H](C)C(=O)N1CCC[C@H]1C(=O)O [Enalapril],97.8
14,CCOC(=O)[C@H](CCc1ccccc1)N[C@@H](C)C(=O)N1CCC[C@H]1C(=O)O [Enalapril maleate],101
15,CO/N=C(\C(=O)N[C@@H]1C(=O)N2C(C(=O)O)=C(C[N+]3(C)CCCC3)CS[C@H]12)c1csc(N)n1 [Cefepime hydrochloride],78.7
16,Cc1noc(NS(=O)(=O)c2ccc(N)cc2)c1C [Sulfisoxazole],102 ± 7.8
17,CCc1cccc2c3c([nH]c12)C(CC)(CC(=O)O)OCC3 (stereo not drawn) [Etodolac (Lodine)],101
18,CCc1cccc2c3c([nH]c12)C(CC)(CC(=O)O)OCC3 (stereo not drawn) [Etodolac],96.9
19,CCC[C@H](NC(=O)[C@@H]1[C@H]2CCC[C@H]2CN1C(=O)[C@@H](NC(=O)[C@@H](NC(=O)c1cnccn1)C1CCCCC1)C(C)(C)C)C(=O)C(=O)NC1CC1 [Telaprevir (VX-950)],102
20,C[C@@H]1CN(CC(=O)Nc2ccc3c(c2)Cc2cccc(-c4cc(=O)cc(N5CCOCC5)o4)c2S3)C[C@H](C)O1,121
21,CC[N+](CC)(CC)CCC(O)(c1ccccc1)C1CCCCC1 (stereo not drawn) [Tridihexethyl chloride],101
22,C[C@]12CC[C@@H]3c4ccc(O)cc4CC[C@H]3[C@@H]1C[C@@H](O)[C@@H]2O [Estriol],104 ± 9.1
23,CN(C)CCCO[C@@H]1[C@H]2OC(C)(C)O[C@H]2O[C@@H]1[C@H](O)CO [Amiprilose hydrochloride],107
